In US12545673B2, “Imidazopyridine derivative and pharmaceutical composition comprising same as active ingredient” (TSD LIFE SCIENCES CO., LTD., priority 2019, dated 2026):

What follows are compounds tested on human gastric cancer cell line HS746T (assay: cells). Conditions: not given.
For CCS(=O)(=O)N1CC[C@H](Nc2c(Cl)cnc3[nH]c(-c4cc(C)n(-c5cc(NS(C)(=O)=O)ccc5C)c4C)nc23)C1 [Example 51, N-(3-(3-(6-chloro-7-(((S)-1-(ethylsulfonyl)pyrrolidine-3-yl)amino)-3H-imidazo[4,5-b]pyridine-2-yl)-2,5-dimethyl-1H-pyrrol-1-yl)-4-methylphenyl) methanesulfonamide], the IC50 was greater than 10 µM. Compound CCS(=O)(=O)N1CC[C@H](Nc2c(Cl)cnc3nc(-c4cc(C)n(-c5ccc(OCCN6CCOCC6)cc5)c4C)[nH]c23)C1 [Example 52, (S)-6-chloro-2-(2,5-dimethyl-1-(4-(2-morpholinoethoxy)phenyl)-1H-pyrrol-3-yl)-N-(1-(ethylsulfonyl)pyrrolidine-3-yl)-1H-imidazo[4,5-b]pyridine-7-amine] has an IC50 greater than 10 µM. Compound CCS(=O)(=O)N1CC[C@H](Nc2c(Cl)cnc3nc(-c4cc(C)n(-c5cccc(C(=O)N6CCOCC6)c5)c4C)[nH]c23)C1 [Example 54, (S)-(3-(3-(6-chloro-7-((1-(ethylsulfonyl)pyrrolidine-3-yl)amino)-1H-imidazo[4,5-b]pyridine-2-yl)-2,5-dimethyl-1H-pyrrol-1-yl)phenyl) (morpholino) methanone] has an IC50 of 6.78 µM. Work on CCN(CC)CCNC(=O)c1cccc(-n2c(C)cc(-c3nc4ncc(Br)c(N[C@H]5CCN(S(=O)(=O)CC)C5)c4[nH]3)c2C)c1 [Example 56, (S)-3-(3-(6-bromo-7-((1-(ethylsulfonyl)pyrrolidine-3-yl)amino)-1H-imidazo[4,5-b]pyridine-2-yl)-2,5-dimethyl-1H-pyrrol-1-yl)-N-(2-(diethylamino)ethyl)benzamide] yielded an IC50 of 5.63 µM. CCS(=O)(=O)N1CC[C@H](Nc2c(Br)cnc3nc(-c4cc(C)n(-c5cc(NC(=O)CN(C)C)ccc5C)c4C)[nH]c23)C1 [Example 74, N-(3-(3-(6-bromo-7-(((S)-1-(ethylsulfonyl)pyrrolidine-3-yl)amino)-1H-imidazo[4,5-b]pyridine-2-yl)-2,5-dimethyl-1H-pyrrol-1-yl)-4-methylphenyl)-2-(dimethylamino) acetamide] was tested, and the IC50 was 6.12 µM. CCS(=O)(=O)N1CC[C@H](Nc2c(Br)cnc3nc(-c4cc(C)n(-c5cc(NC(=O)CN6CCN(C)CC6)ccc5C)c4C)[nH]c23)C1 [Example 76, N-(3-(3-(6-bromo-7-(((S)-1-(ethylsulfonyl)pyrrolidine-3-yl)amino)-1H-imidazo[4,5-b]pyridine-2-yl)-2,5-dimethyl-1H-pyrrol-1-yl)-4-methylphenyl)-2-(4-methylpiperazine-1-yl) acetamide] was tested, and the IC50 was 7 µM. With CCS(=O)(=O)N1CC[C@H](Nc2c(Br)cnc3nc(-c4cc(C)n(-c5ccc(NC(=O)CN6CCOCC6)cc5C)c4C)[nH]c23)C1 [Example 77, N—(4-(3-(6-bromo-7-(((S)-1-(ethylsulfony)pyrolidine-3-yl)amino)-1H-imidazo[4,5-b]pyridine-2-yl)-2,5-dimethyl-1H-pyrrol-1-yl)-3-methylphenyl)-2-morpholinoacetamide] the IC50 was greater than 10 µM. CCS(=O)(=O)N1CC[C@H](Nc2c(Br)cnc3nc(-c4cc(C)n(-c5cc(NC(=O)CCN(C)C)ccc5C)c4C)[nH]c23)C1 [Example 80] gave an IC50 of 6.51 µM.

Same assay, conditions: HS746T, 0.1-30 μM, CCK-8
Compound CCS(=O)(=O)N1CC[C@H](Nc2c(Br)cnc3[nH]c(-c4cc(C)n(-c5cc(NS(C)(=O)=O)ccc5C)c4C)nc23)C1 [Example 7, N-(3-(3-(6-bromo-7-(((S)-1-(ethylsulfonyl)pyrrolidine-3-yl)amino)-3H-imidazo[4,5-b]pyridine-2-yl)-2,5-dimethyl-1H-pyrrol-1-yl)-4-methylphenyl) methanesulfonamide] has an IC50 of 7.4 µM. Work on CCS(=O)(=O)N1CC[C@H](Nc2c(Br)cnc3[nH]c(-c4cc(C)n(-c5ccc(NS(C)(=O)=O)cc5C)c4C)nc23)C1 [Example 8, N-(4-(3-(6-bromo-7-(((S)-1-(ethylsulfonyl)pyrrolidine-3-yl)amino)-3H-imidazo[4,5-b]pyridine-2-yl)-2,5-dimethyl-1H-pyrrol-1-yl)-3-methylphenyl) methanesulfonamide] yielded an IC50 of 3.4 µM. Compound CCS(=O)(=O)N1CC[C@H](Nc2c(Br)cnc3[nH]c(-c4cc(C)n(-c5cccc(NS(C)(=O)=O)c5C)c4C)nc23)C1 [Example 9, N-(3-(3-(6-bromo-7-(((S)-1-(ethylsulfonyl)pyrrolidine-3-yl)amino)-3H-imidazo[4,5-b]pyridine-2-yl)-2,5-dimethyl-1H-pyrrol-1-yl)-2-methylphenyl) methanesulfonamide] has an IC50 of 3.69 µM. With CCN(CC)CCNC(=O)c1ccc(-n2c(C)cc(-c3nc4ncc(Br)c(N[C@H]5CCN(S(=O)(=O)CC)C5)c4[nH]3)c2C)cc1 [Example 57, (S)-4-(3-(6-bromo-7-((1-(ethylsulfonyl)pyrrolidine-3-yl)amino)-1H-imidazo[4,5-b]pyridine-2-yl)-2,5-dimethyl-1H-pyrrol-1-yl)-N-(2-(diethylamino)ethyl)benzamide] the IC50 was 5.49 µM. In the case of CCS(=O)(=O)N1CC[C@H](Nc2c(Br)cnc3[nH]c(-c4cc(C)n(-c5cccc(C(=O)NCN(C)C)c5)c4C)nc23)C1 [Example 60, (S)-3-(3-(6-bromo-7-((1-(ethylsulfonyl)pyrrolidine-3-yl)amino)-3H-imidazo[4,5-b]pyridine-2-yl)-2,5-dimethyl-1H-pyrrol-1-yl)-N-((dimethylamino)methyl)benzamide], the IC50 is reported as 5.56 µM. For CCS(=O)(=O)N1CC[C@H](Nc2c(Br)cnc3[nH]c(-c4cc(C)n(-c5cccc(C(=O)N(C)CCN(C)C)c5)c4C)nc23)C1 [Example 61, (S)-3-(3-(6-bromo-7-((1-(ethylsulfonyl)pyrrolidine-3-yl)amino)-3H-imidazo[4,5-b]pyridine-2-yl)-2,5-dimethyl-1H-pyrrol-1-yl)-N-(2-(dimethylamino)ethyl)-N-methylbenzamide], the IC50 was 5.32 µM. In the case of CCS(=O)(=O)N1CC[C@H](Nc2c(Br)cnc3nc(-c4cc(C)n(-c5cccc(NC(=O)CN(C)C)c5)c4C)[nH]c23)C1 [Example 64, (S)—N-(3-(3-(6-bromo-7-((1-(ethylsulfonyl)pyrrolidine-3-yl)amino)-1H-imidazo[4,5-b]pyridine-2-yl)-2,5-dimethyl-1H-pyrrol-1-yl)phenyl)-2-(dimethylamino) acetamide], the IC50 is reported as 4.09 µM. CCS(=O)(=O)N1CC[C@H](Nc2c(Br)cnc3nc(-c4cc(C)n(-c5cccc(NC(=O)CN6CCN(C)CC6)c5)c4C)[nH]c23)C1 [Example 65] was tested, and the IC50 was 2.71 µM. For CCS(=O)(=O)N1CC[C@H](Nc2c(Br)cnc3nc(-c4cc(C)n(-c5cccc(NC(=O)CN6CCOCC6)c5)c4C)[nH]c23)C1 [Example 66, (S)—N-(3-(3-(6-bromo-7-((1-(ethylsulfonyl)pyrrolidine-3-yl)amino)-1H-imidazo[4,5-b]pyridine-2-yl)-2,5-dimethyl-1H-pyrrol-1-yl)phenyl)-2-morpholinoacetamide], the IC50 was 5.19 µM. In the case of CCS(=O)(=O)N1CC[C@H](Nc2c(Br)cnc3nc(-c4cc(C)n(-c5ccc(C(=O)N6CCN(C)CC6)cc5)c4C)[nH]c23)C1 [Example 67, (S)-(4-(3-(6-bromo-7-((1-(ethylsulfonyl)pyrrolidine-3-yl)amino)-1H-imidazo[4,5-b]pyridine-2-yl)-2,5-dimethyl-1H-pyrrol-1-yl)phenyl) (4-methylpiperazine-1-yl) methanone], the IC50 is reported as greater than 10 µM. With CCS(=O)(=O)N1CC[C@H](Nc2c(Br)cnc3[nH]c(-c4cc(C)n(-c5ccc(C(=O)NCCN6CCN(C)CC6)cc5)c4C)nc23)C1 [Example 72, (S)-4-(3-(6-bromo-7-((1-(ethylsulfonyl)pyrrolidine-3-yl)amino)-3H-imidazo[4,5-b]pyridine-2-yl)-2,5-dimethyl-1H-pyrrol-1-yl)-N-(2-(4-methylpiperazine-1-yl)ethyl)benzamide] the IC50 was 9.28 µM. With CCS(=O)(=O)N1CC[C@H](Nc2c(Br)cnc3nc(-c4cc(C)n(-c5ccc(NC(=O)CN(C)C)cc5C)c4C)[nH]c23)C1 [Example 73, N-(4-(3-(6-bromo-7-(((S)-1-(ethylsulfonyl)pyrrolidine-3-yl)amino)-1H-imidazo[4,5-b]pyridine-2-yl)-2,5-dimethyl-1H-pyrrol-1-yl)-3-methylphenyl)-2-(dimethylamino) acetamide] the IC50 was 5.42 µM. CCS(=O)(=O)N1CC[C@H](Nc2c(Br)cnc3nc(-c4cc(C)n(-c5ccc(NC(=O)CN6CCN(C)CC6)cc5C)c4C)[nH]c23)C1 [Example 75, N-(4-(3-(6-bromo-7-(((S)-1-(ethylsulfonyl)pyrrolidine-3-yl)amino)-1H-imidazo[4,5-b]pyridine-2-yl)-2,5-dimethyl-1H-pyrrol-1-yl)-3-methylphenyl)-2-(4-methylpiperazine-1-yl) acetamide] was tested, and the IC50 was 6.23 µM. CCS(=O)(=O)N1CC[C@H](Nc2c(Br)cnc3nc(-c4cc(C)n(-c5cc(NC(=O)CN6CCOCC6)ccc5C)c4C)[nH]c23)C1 [Example 78, N-(3-(3-(6-bromo-7-(((S)-1-(ethylsulfonyl)pyrrolidine-3-yl)amino)-1H-imidazo[4,5-b]pyridine-2-yl)-2,5-dimethyl-1H-pyrrol-1-yl)-4-methylphenyl)-2-morpholinoacetamide] showed an IC50 of 7.33 µM. With CCS(=O)(=O)N1CC[C@H](Nc2c(Br)cnc3nc(-c4cc(C)n(-c5cccc(NC(=O)CCN(C)C)c5C)c4C)[nH]c23)C1 [Example 79] the IC50 was 3.06 µM. With CCS(=O)(=O)N1CC[C@H](Nc2c(Br)cnc3nc(-c4cc(C)n(-c5cccc(C(=O)N6CCN(C)CC6)c5C)c4C)[nH]c23)C1 [Example 81, (3-(3-(6-bromo-7-(((S)-1-(ethylsulfonyl)pyrrolidine-3-yl)amino)-1H-imidazo[4,5-b]pyridine-2-yl)-2,5-dimethyl-1H-pyrrol-1-yl)-2-methylphenyl) (4-methylpiperazine-1-yl) methanone] the IC50 was greater than 10 µM. Work on CCS(=O)(=O)N1CC[C@H](Nc2c(Br)cnc3nc(-c4cc(C)n(-c5cccc(C(=O)N6CCOCC6)c5C)c4C)[nH]c23)C1 [Example 83, (3-(3-(6-bromo-7-(((S)-1-(ethylsulfonyl)pyrrolidine-3-yl)amino)-1H-imidazo[4,5-b]pyridine-2-yl)-2,5-dimethyl-1H-pyrrol-1-yl)-2-methylphenyl) (morpholino) methanone] yielded an IC50 of 8.59 µM. CCS(=O)(=O)N1CC[C@H](Nc2c(Br)cnc3nc(-c4cc(C)n(-c5cccc(NC(=O)CN6CCN(C)CC6)c5C)c4C)[nH]c23)C1 [Example 87, N-(3-(3-(6-bromo-7-(((S)-1-(ethylsulfonyl)pyrrolidine-3-yl)amino)-1H-imidazo[4,5-b]pyridine-2-yl)-2,5-dimethyl-1H-pyrrol-1-yl)-2-methylphenyl)-2-(4-methylpiperazine-1-yl) acetamide] was tested, and the IC50 was 5.71 µM.
